PubChem BioAssay AID1645887 (National Center for Advancing Translational Sciences (NCATS), 2021)
“And” between values parts separate entries of the source, which are not always exact repeats. Equal entries are not always repeated. About 40 (0.2%) of roughly 16,000 compounds were called active. Inconclusive results (about 1%) are left out. The call rests on the fitted dose curve; in most records, active means well fitted activation curve with a large enough effect; inconclusive means small, poorly fitted or top-dose-only effect, or another doubt; inactive means no such curve, though single readings can be large or run the other way. This is one part of the list.

target: Rap guanine nucleotide exchange factor 4 (Homo sapiens) (UniProt Q8WZA2); assay: Validation qHTS for agonist of cAMP-regulated guanine nucleotide exchange factor 4 (EPAC2); details: EPAC2 Rap1B BODIPY-GDP exchange, fluorescence; activation: active compounds read high;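 further: exchange makes BODIPY-GDP fluorescence drop when released from Rap1B; series mostly up to about 150 µM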
How it was run: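 Signal normalized against 6.5 mM cAMP as agonist control. Mix of EPAC2 (100 nM), RAP1B-BODIPY-GDP (250 nM) and GDP (50 uM) was read kinetically at 480/540 nm, every 5 min over 30 min, after 5 min room-temperature incubation with compound.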
On the % scale 0 is the no-effect control and ±100 the full control effect.

UniProt Q8WZA2, sequence (Q8WZA2 whole entry, looked up): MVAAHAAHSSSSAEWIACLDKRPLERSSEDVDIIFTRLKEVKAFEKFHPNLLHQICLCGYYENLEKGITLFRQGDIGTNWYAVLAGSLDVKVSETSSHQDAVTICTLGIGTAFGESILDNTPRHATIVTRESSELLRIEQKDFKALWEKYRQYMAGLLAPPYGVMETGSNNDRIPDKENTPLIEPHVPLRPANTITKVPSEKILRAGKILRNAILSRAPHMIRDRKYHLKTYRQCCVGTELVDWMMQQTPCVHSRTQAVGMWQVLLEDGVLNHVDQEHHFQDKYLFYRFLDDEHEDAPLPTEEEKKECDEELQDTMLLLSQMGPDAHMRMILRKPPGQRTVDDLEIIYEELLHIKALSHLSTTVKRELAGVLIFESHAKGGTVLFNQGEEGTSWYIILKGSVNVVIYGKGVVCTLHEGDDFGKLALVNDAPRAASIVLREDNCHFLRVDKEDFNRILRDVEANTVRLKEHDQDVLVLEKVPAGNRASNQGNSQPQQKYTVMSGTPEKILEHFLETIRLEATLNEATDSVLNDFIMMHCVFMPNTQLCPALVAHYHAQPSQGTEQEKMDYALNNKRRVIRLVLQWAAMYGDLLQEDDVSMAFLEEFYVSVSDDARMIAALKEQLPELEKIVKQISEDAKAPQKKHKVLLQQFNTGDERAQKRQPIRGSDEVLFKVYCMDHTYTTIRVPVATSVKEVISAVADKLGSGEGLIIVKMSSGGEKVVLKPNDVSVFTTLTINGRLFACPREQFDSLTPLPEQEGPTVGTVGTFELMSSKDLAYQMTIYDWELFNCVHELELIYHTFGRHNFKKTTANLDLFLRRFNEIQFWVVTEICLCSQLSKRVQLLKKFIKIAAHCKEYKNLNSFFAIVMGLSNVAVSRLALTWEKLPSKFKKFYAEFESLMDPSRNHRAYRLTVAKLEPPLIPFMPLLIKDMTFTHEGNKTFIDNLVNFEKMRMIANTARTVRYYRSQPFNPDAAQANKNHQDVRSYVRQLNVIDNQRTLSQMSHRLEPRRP

activation, inactive:
COC(=O)[C@@H]1CCCN1Cc1ccc2c(c1)CN(Cc1cccn1-c1ccc(Cl)cn1)CCO2 -1.14%
O=c1c(-c2ccc(Cl)cc2)nc2cncnc2n1Cc1ccccc1Cl 4.02%
CO/N=C(\C(=O)N[C@@H]1C(=O)N2C(C(=O)O)=C(CSc3nc(=O)c(O)nn3C)CS[C@H]12)c1csc(N)n1 -10.9%
NC(=O)CC[C@@H](N)C(=O)O -19.5%
Cc1cc2ccc(=O)oc2cc1OC[C@@H](O)C(C)(C)O 1.78%
CCCCOC(=O)NS(=O)(=O)c1sc(CC(C)C)cc1-c1ccc(Cn2c(CC)nc3c(C)cc(C)nc32)cc1 -71.8%
O=C(Cc1cccs1)N[C@@H]1C(=O)N2C(C(=O)[O-])=C(C[n+]3ccccc3)CS[C@H]12 -11.2%
Cn1nccc1C(=O)NCC1CCC2(CCN(Cc3ccc(-c4ccc(Cl)cc4)o3)CC2)O1 (centres undefined) -1.07%
CC(C)=O 1.69%
Cn1cc(CN2CCOc3ccc(C(O)C4CCCCC4)cc3C2)cn1 (centres undefined) -4.71%
CC1CN(CC(=O)NCc2ccc3c(c2)OCO3)Cc2cc(Cl)ccc2O1 (centres undefined) -18.1%
COc1cccc(-c2oc3ccccc3c(=O)c2O)c1 2.7%
COc1ccc2[nH]cc(CCNc3nc(-c4ccoc4)nc4ccccc34)c2c1 0.308%
COc1ccc(N2C(=O)[C@@H]3C[C@H]2CN3Cc2cccn2-c2ccccn2)cc1Cl 2.13%
OB(O)O 8.43%
COCc1ccc(CN2CCOc3c(cc(-c4cc(C)c5cccc(OC)c5n4)cc3OC)C2)o1 -2.23%
Fc1ccc(N2CCN(Cc3ccc4c(c3)CN(Cc3cccn3-c3cccnc3)CCO4)CC2)cc1 -6.77%
Clc1ccccc1-c1nccc(NCc2ccccc2)n1 -17.5%
C=C1C(=O)OC2C[C@@]3(C)CCCC(C)C3=CC12 (some centres undefined) 8.26%
CC(C)=CCN1CCC2(CCc3ccccc32)CC1 3.48%
COc1ccccc1-c1ccnc(-n2ncc(C(=O)NCCc3ccccn3)c2C)n1 1.35%
FC(F)(F)c1ccccc1-c1ccc2ncnc(NCc3cccnc3)c2c1 -4.36%
COc1ccccc1CCn1c(=O)c(-c2cccs2)nc2cncnc21 -5.5%
COc1ccc(-n2c(=O)c(-c3cccc(F)c3)nc3cncnc32)cc1 -1.59%
COc1ccc(C(=O)N2CCC3(CCCN(Cc4ccccc4OC)C3)CC2)cc1 -5.71%
CN1CCN(c2ncnc3ccc(-c4cccc(NS(C)(=O)=O)c4)cc23)CC1 -11.2%
Cc1cc(C)n(-c2ccc(C(=O)N3CCc4c(cnc(C)c4CNC(=O)c4ccccc4F)C3)cc2)n1 -25.1%
CCOC(=O)OC(C)OC(=O)[C@@H]1N2C(=O)[C@@H](NC(=O)[C@H](N)c3ccccc3)[C@H]2SC1(C)C (some centres undefined) -9.66%
COc1ccc(C2OCC3(COC(C)=O)C(C)C=C(C)C2C3C)cc1 (centres undefined) -20.6%
CCCCCCCCCCCCCCCC[N+](C)(C)CC -8.9%
CCOC(=O)[C@H](CCc1ccccc1)N[C@H]1CCc2ccccc2N(CC(=O)O)C1=O -11%
CC1=CC(=O)C2C(C)(C)CCC[C@@]2(C)[C@@]1(O)CCc1ccoc1 (some centres undefined) -1.92%
COC(=O)/C=C\c1cc(O)ccc1O -11.4%
COc1ccc(-c2nc3cnc(Oc4ccccc4)nc3n(Cc3cccs3)c2=O)cc1 -2.11%
CCC(CCC(C)C1CCC2C3CC=C4CC(OC(C)=O)CC[C@@]4(C)C3CC[C@@]12C)C(C)C (some centres undefined) -26.5%
CCCCNc1ccc(C(=O)OCCN(CC)CC)cc1 -14.1%
COc1cc2c(cc1OC)-c1cc(=Nc3c(C)cc(C)cc3C)n(C)c(=O)n1CC2 -14.2% and -24.7%
COc1ccc(Oc2ncc3nc(-c4cc(F)cc(F)c4)c(=O)n(CCC#N)c3n2)cc1 -16.4%
N#CCCn1c(=O)c(-c2cccs2)nc2cnc(N3CCOCC3)nc21 2.82%
CC1=C(C(=O)O)N2C(=O)C(NC(=O)C(N)C3=CCC=CC3)C2SC1 (centres undefined) -5.59%
CCNC(=O)N1CCN(CCCC(c2ccc(F)cc2)c2ccc(F)cc2)CC1 -11.2% and -17.1%
Fc1ccc(C(OCCCc2cnc[nH]2)c2ccc(F)cc2)cc1 -65.8%
CCOC(=O)C[C@H]1c2ccc(C(F)(F)F)cc2S(=O)(=O)N1C1CCCC1 -26.6%
O=c1c(-c2ccc(F)c(F)c2)nc2cncnc2n1Cc1ccccc1 -20.1%
O=c1[nH]c(Cl)nc2c1ncn2C1OC(CO)C(O)C1O (centres undefined) -14%
COC(=O)N1CCC2(CCCN(Cc3cc(C(F)(F)F)cc(C(F)(F)F)c3)C2)CC1 -27.8%
CCN(CC)CCC(=O)N1c2ccccc2Sc2ccc(C(F)(F)F)cc21 4.09%
O=C(NCC1Cc2cccc(-c3cnccn3)c2O1)C1COc2ccccc2O1 (centres undefined) -10%
CNc1cc(-c2ccccc2CN(C)C)ncn1 -7.79%
O=C1CCC(c2ccc(-n3ccnc3)cc2)=NN1 -7.5% and -44%
CS(=O)(=O)Nc1cc(C(=O)N2CCNC(=O)C2)c2c(c1)ncn2CCc1ccccc1 1.91%
COc1ccccc1CCc1nc2ccccc2n1C1CCN(C(=O)c2cn3ccsc3n2)CC1 -19%
COc1ccc(NC(=O)N2CCCC3(CCN(C(=O)c4cccn4C)CC3)C2)cc1 -8.96%
CC(C)c1cnc(NC(=O)Cc2ccccc2)s1 -13%
COc1ccc(-c2nc3cnc(Nc4cccc(OC)c4)nc3n(C3CC3)c2=O)cc1 9.38%
CC(C)n1c(/C=C/[C@@H](O)C[C@@H](O)CC(=O)O)c(-c2ccc(F)cc2)c2ccccc21 -44.4%
Cn1c(=O)c(-c2ccccc2)c(O)c2ccccc21 -21.1%
COC1=C(OC)C(=O)C(CCCCCCCCCCO)=C(C)C1=O -18.3%
FC(F)(F)c1ccccc1-c1ccc2ncnc(NCCN3CCOCC3)c2c1 0.881%
